# Measured values as given in the supplement of paper PMC4604168 (melanoma cell lines).
# This is one part of the list. Most values come without repeats; read them as rough.
# Tests used:
# Assay in all cases: cell count relative to DMSO control; melanoma cells; higher = more viable cells
# Details in all cases: library dose: low library concentration; 72 h
# MeWo = system: MeWo
# RPMI7951 = system: RPMI7951
# RVH-421 = system: RVH-421
# SkMel28 = system: SkMel28
# SkMel30 = system: SkMel30
# SkMel5 = system: SkMel5
# UACC257 = system: UACC257
# UACC62 = system: UACC62
# WM115 = system: WM115
# WM1716 = system: WM1716
# WM1745 = system: WM1745
# WM3526 = system: WM3526
# WM3619 = system: WM3619
# WM451Lu = system: WM451Lu
# 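Note: cell number obtained by counting DAPI-stained nuclei in high-throughput microscope images with image analysis software, screen run in 1,536-well plates.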
SMILES,cell count (MeWo) [%],cell count (RPMI7951) [%],cell count (RVH-421) [%],cell count (SkMel28) [%],cell count (SkMel30) [%],cell count (SkMel5) [%],cell count (UACC257) [%],cell count (UACC62) [%],cell count (WM115) [%],cell count (WM1716) [%],cell count (WM1745) [%],cell count (WM3526) [%],cell count (WM3619) [%],cell count (WM451Lu) [%]
"COC(=O)c1sccc1S(=O)(=O)Nc1ccc(Nc2ccccc2)cc1OC + COc1cc2ncnc(Nc3ccc(Oc4ccccc4)cc3)c2cc1OC [SrcI1] (first compound 1 µM, partner dose 2 µM)",95.3,111,126,92.4,105,100,113,100,108,108,84.9,109,116,95
"COc1cc(N2CCC(N3CCN(C)CC3)CC2)ccc1Nc1ncc(Cl)c(Nc2ccccc2S(=O)(=O)C(C)C)n1 + Cn1cc(/C=C2\C(=O)Nc3cccnc32)c2ccccc21 [GW441756] (first compound 0.08 µM, partner dose 0.4 µM)",95.5,95.2,96.7,87.8,100,75.4,84.7,89.5,95.9,106,91.9,89.8,101,99.6
"COc1ccc2c(c1)CCC1C2CCC2(C)C(NCCCCCCN3C(=O)C=CC3=O)CCC12 (stereo not given) + Oc1cc(-c2nc(-c3ccccc3)[nH]c2-c2ccncc2)ccc1Cl [L779450] (first compound 0.4 µM, partner dose 0.2 µM)",92.3,53.5,88.6,82,93.4,109,92.4,82.2,89.1,79.2,66.5,84.6,73.3,110
"O=C1NC(=O)/C(=C/c2ccc(-c3ccc(F)cc3O)o2)S1 + Cn1cc(/C=C2\C(=O)Nc3cccnc32)c2ccccc21 [GW441756] (first compound 1 µM, partner dose 0.4 µM)",106,110,90.3,84.8,101,88.1,79.2,97.9,105,105,101,107,87.4,114
"Oc1cc(-c2nc(-c3ccccc3)[nH]c2-c2ccncc2)ccc1Cl + c1cc(-c2cnn3cc(-c4ccc(OCCN5CCCCC5)cc4)cnc23)ccn1 [Dorsomorphin] (first compound 0.2 µM, partner dose 0.4 µM)",92.2,100,81.8,76.6,89.6,80.4,68.4,53.9,58.7,107,87.3,58.3,103,86.8
"O=C(O)C(=O)Nc1sc2c(c1C(=O)O)CCNC2 + Cn1cc(/C=C2\C(=O)Nc3cccnc32)c2ccccc21 [GW441756] (first compound 1.66667 µM, partner dose 0.4 µM)",114,101,90.2,74.3,101,82.5,92.6,89.7,106,104,89.2,116,90.6,113
"COC(=O)c1sccc1S(=O)(=O)Nc1ccc(Nc2ccccc2)cc1OC + COc1ccc2c(c1)CCC1C2CCC2(C)C(NCCCCCCN3C(=O)C=CC3=O)CCC12 [U73122] (first compound 1 µM, partner dose 0.4 µM)",110,95.4,110,89.1,118,89,105,97.7,108,95,89.4,92.2,92.9,106
"CCN(CC)CCCCNc1ncc2cc(-c3cc(OC)cc(OC)c3)c(NC(=O)NC(C)(C)C)nc2n1 + O=C(O)C(=O)Nc1sc2c(c1C(=O)O)CCNC2 [TCS401] (first compound 0.1 µM, partner dose 1.66667 µM)",110,121,89.5,93.8,99.5,89.4,81.4,101,104,123,103,92.6,133,94.9
"Oc1nc(-c2ccc(C(F)(F)F)cc2)nc2c1CSCC2 + CCCCCCCCCCCC1=C(O)C(=O)C=C(O)C1=O [Embelin] (first compound 2 µM, partner dose 1.2 µM)",112,85.7,70.5,104,128,92.7,85.4,105,102,67,68.9,113,102,95.4
"Oc1nc(-c2ccc(C(F)(F)F)cc2)nc2c1CSCC2 + COc1cc(N2CCC(N3CCN(C)CC3)CC2)ccc1Nc1ncc(Cl)c(Nc2ccccc2S(=O)(=O)C(C)C)n1 [NVP-TAE684] (first compound 2 µM, partner dose 0.08 µM)",99.3,87.4,104,91.4,114,74.7,86,95.5,90.5,66.1,90.7,115,78.4,104
"N#Cc1c(O)c2c(-c3ccc(-c4ccccc4O)cc3)csc2[nH]c1=O + COc1ccc(COc2ccc(Cc3cnc(N)nc3N)cc2OC)cc1 [GW2580] (first compound 2 µM, partner dose 1 µM)",97.4,111,88.1,104,97.3,98.3,95.1,110,106,100,81.4,106,111,93
"N#Cc1c(O)c2c(-c3ccc(-c4ccccc4O)cc3)csc2[nH]c1=O + Oc1nc(-c2ccc(C(F)(F)F)cc2)nc2c1CSCC2 [XAV939] (first compound 2 µM, partner dose 2 µM)",107,96.1,104,98,118,88.8,91.4,112,102,83.4,87,102,84.5,112
"COc1ccc(-c2ccc3c(N4CCOCC4)nc(N4C[C@@H](C)O[C@@H](C)C4)nc3n2)cc1CO + O=C1NC(=O)/C(=C/c2ccc(-c3ccc(F)cc3O)o2)S1 [AS252424] (first compound 0.02 µM, partner dose 1 µM)",91.6,89.8,116,92.6,104,95.6,69.1,102,91,90.1,87.5,89.8,94.4,116
"COC(=O)c1sccc1S(=O)(=O)Nc1ccc(Nc2ccccc2)cc1OC + O=C1NC(=O)/C(=C/c2ccc(-c3ccc(F)cc3O)o2)S1 [AS252424] (first compound 1 µM, partner dose 1 µM)",99.5,120,79.6,86.4,87.1,116,104,97.2,91.9,102,78.1,85.6,86.3,103
"COc1ccc2c(c1)CCC1C2CCC2(C)C(NCCCCCCN3C(=O)C=CC3=O)CCC12 (stereo not given) + Cn1cc(/C=C2\C(=O)Nc3cccnc32)c2ccccc21 [GW441756] (first compound 0.4 µM, partner dose 0.4 µM)",103,69.7,96.6,97.4,114,96.4,85.9,93.1,95,92.8,85.8,122,96.2,116
"N#Cc1c(O)c2c(-c3ccc(-c4ccccc4O)cc3)csc2[nH]c1=O + O=S(=O)(c1ccccc1)N(CC(F)(F)F)c1ccc(C(O)(C(F)(F)F)C(F)(F)F)cc1 [T0901317] (first compound 2 µM, partner dose 1.4 µM)",89.7,96.3,89.5,91.5,94.8,80.2,78,84.6,88.9,84.7,82.3,88,82.2,89.6
"N#Cc1c(O)c2c(-c3ccc(-c4ccccc4O)cc3)csc2[nH]c1=O + Oc1cc(-c2nc(-c3ccccc3)[nH]c2-c2ccncc2)ccc1Cl [L779450] (first compound 2 µM, partner dose 0.2 µM)",92.9,93.1,87.7,71.5,78.6,104,97.6,68.5,83.3,114,99.7,93.1,121,112
"c1cc(-c2cnn3cc(-c4ccc(OCCN5CCCCC5)cc4)cnc23)ccn1 [Dorsomorphin] + O=c1cc(-c2cccc3c2Sc2ccccc2S3)oc(N2CCOCC2)c1 [KU55933] (first compound 0.4 µM, partner dose 1 µM)",91,110,106,109,118,76.3,81.8,86.4,109,119,83,105,110,114
"COc1ccc(-c2ccc3c(N4CCOCC4)nc(N4C[C@@H](C)O[C@@H](C)C4)nc3n2)cc1CO + O=c1cc(-c2cccc3c2Sc2ccccc2S3)oc(N2CCOCC2)c1 [KU55933] (first compound 0.02 µM, partner dose 1 µM)",89.7,110,127,90,86.2,97.9,90.3,99.1,92.7,106,99.4,88.4,83.9,74.8
"O=S(=O)(c1ccccc1)N(CC(F)(F)F)c1ccc(C(O)(C(F)(F)F)C(F)(F)F)cc1 + Oc1cc(-c2nc(-c3ccccc3)[nH]c2-c2ccncc2)ccc1Cl [L779450] (first compound 1.4 µM, partner dose 0.2 µM)",103,96.2,114,88.8,89.1,69.7,88.8,61.5,91.8,105,85.8,70.1,76.6,103
